# In publication PMC3182262:
# These are yes or no findings as the source states them, for the method shown. Binding seen in cells or lysates may run through a third protein. Where a sequence is shown, tags or fusion partners need not be part of it.
# T1: TRAF2, expressed in HEK293T cells, Q12933
# T1 chain: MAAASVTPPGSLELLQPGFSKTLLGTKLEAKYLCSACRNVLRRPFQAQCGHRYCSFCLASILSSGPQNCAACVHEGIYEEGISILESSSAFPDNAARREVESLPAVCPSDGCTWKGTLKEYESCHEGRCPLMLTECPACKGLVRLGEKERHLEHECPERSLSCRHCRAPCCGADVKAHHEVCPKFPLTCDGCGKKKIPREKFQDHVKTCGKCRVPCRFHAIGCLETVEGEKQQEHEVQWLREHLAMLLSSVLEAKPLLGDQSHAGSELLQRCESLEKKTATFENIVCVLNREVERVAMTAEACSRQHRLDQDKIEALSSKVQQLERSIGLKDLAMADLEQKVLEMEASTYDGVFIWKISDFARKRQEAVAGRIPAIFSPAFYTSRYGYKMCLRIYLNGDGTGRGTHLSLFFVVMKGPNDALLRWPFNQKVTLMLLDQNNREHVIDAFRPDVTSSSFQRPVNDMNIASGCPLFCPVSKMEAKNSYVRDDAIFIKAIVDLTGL
# T2: FLAG-TAK1, expressed in HEK293T cells, O43318
# T2 chain: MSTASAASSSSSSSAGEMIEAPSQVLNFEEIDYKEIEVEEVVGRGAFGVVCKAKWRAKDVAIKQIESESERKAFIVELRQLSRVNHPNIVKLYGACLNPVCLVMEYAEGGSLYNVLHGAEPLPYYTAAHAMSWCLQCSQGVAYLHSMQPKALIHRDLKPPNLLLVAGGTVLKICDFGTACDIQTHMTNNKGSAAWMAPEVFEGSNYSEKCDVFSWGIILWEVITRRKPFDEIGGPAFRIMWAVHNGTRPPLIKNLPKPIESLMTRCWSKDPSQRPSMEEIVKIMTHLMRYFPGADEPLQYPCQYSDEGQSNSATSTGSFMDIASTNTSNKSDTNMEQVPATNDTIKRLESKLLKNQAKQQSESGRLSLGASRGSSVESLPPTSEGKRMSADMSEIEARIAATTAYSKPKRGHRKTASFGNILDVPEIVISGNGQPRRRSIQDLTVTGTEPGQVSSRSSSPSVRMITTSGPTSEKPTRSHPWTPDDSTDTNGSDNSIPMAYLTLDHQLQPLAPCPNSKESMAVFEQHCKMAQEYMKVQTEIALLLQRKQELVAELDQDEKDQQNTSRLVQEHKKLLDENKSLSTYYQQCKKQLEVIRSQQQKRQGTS
# B1: HA-TTRAP, transiently expressed in HEK293T cells, O95551 1-362 (protein)
# chain: MELGSCLEGGREAAEEEGEPEVKKRRLLCVEFASVASCDAAVAQCFLAENDWEMERALNSYFEPPVEESALERRPETISEPKTYVDLTNEETTDSTTSKISPSEDTQQENGSMFSLITWNIDGLDLNNLSERARGVCSYLALYSPDVIFLQEVIPPYYSYLKKRSSNYEIITGHEEGYFTAIMLKKSRVKLKSQEIIPFPSTKMMRNLLCVHVNVSGNELCLMTSHLESTRGHAAERMNQLKMVLKKMQEAPESATVIFAGDTNLRDREVTRCGGLPNNIVDVWEFLGKPKHCQYTWDTQMNSNLGITAACKLRFDRIFFRAAAEEGHIIPRSLDLLGLEKLDCGRFPSDHWGLLCNLDIIL
# B2: TRAF2, expressed in HEK293T cells, Q12933 1-501 (protein)
# chain: T1 chain
# Tests used:
# [1] = molecular target: T1, TRAF2, expressed in HEK293T cells, …; experiment: co-IP; proteins co-expressed in HEK293T cells; TRAFs (TRAF6, TRAF6(C70A), TRAF2) pulled down from total lysates; western blotting; details: remark: other sources report otherwise
# [2] = molecular target: T2, FLAG-TAK1, expressed in HEK293T cells, …; experiment: co-IP; FLAG-TAK1 precipitated with a FLAG antibody from transfected HEK293T cells; western blotting; TRAF6 or TRAF2 co-expressed; details: remark: other sources report otherwise
binding [1],binding [2],Binder
no binding,–,B1
–,no binding,B2
